# Results reported in the BET-seq Pho4 binding data (Le et al. 2018).
# Some of the results follow. These are noisy estimates, calculated here from bound and input reads.
# Biological target: T1, Pho4 (S. cerevisiae) (UniProt P07270)
# T1 sequence: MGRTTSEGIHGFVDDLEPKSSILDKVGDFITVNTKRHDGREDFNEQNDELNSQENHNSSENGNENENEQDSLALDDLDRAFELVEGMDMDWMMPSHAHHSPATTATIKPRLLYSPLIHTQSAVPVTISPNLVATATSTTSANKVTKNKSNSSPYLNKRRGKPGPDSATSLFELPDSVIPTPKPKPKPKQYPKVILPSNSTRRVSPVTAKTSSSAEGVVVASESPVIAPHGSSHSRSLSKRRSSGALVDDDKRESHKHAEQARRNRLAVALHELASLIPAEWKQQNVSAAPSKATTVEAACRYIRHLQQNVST
# Test: relative binding free energy (BET-seq); higher = weaker binding
# Conditions: reference: library average
row,Sequence,relative binding free energy
1,TACGTCACGTGATGGT,0.24 kcal/mol
2,AGAAGCACGTGTGAGT,0.08 kcal/mol
3,ATTGCCACGTGGTAAG,-0.06 kcal/mol
4,TTGCACACGTGTTATG,0.01 kcal/mol
5,TTATCCACGTGGGTGG,-0.16 kcal/mol
6,TATGTCACGTGTCGGG,0.11 kcal/mol
7,TTCATCACGTGTTGCG,0.08 kcal/mol
8,TGGTACACGTGGTGGA,0.05 kcal/mol
9,TAGATCACGTGTCGTG,0.18 kcal/mol
10,GATAGCACGTGGGGCA,-0.26 kcal/mol
11,CTGATCACGTGATGGG,0.19 kcal/mol
12,TGCGGCACGTGAACGG,0.14 kcal/mol
13,GGTTTCACGTGCTCTG,0.21 kcal/mol
14,ATGGACACGTGTAAAT,0.19 kcal/mol
15,TGTCGCACGTGGGGAA,-0.09 kcal/mol
16,GGGCTCACGTGTGTGG,0.28 kcal/mol
17,GACTTCACGTGTGTGA,0.38 kcal/mol
18,GATGGCACGTGGGAAT,-0.01 kcal/mol
19,GTGGACACGTGTATTC,0.21 kcal/mol
20,TTGAACACGTGGTGCG,-0.14 kcal/mol
21,GTGTACACGTGCTTGT,-0.07 kcal/mol
22,GGAGACACGTGGTGGC,-0.01 kcal/mol
23,CGATGCACGTGTGTTT,-0.03 kcal/mol

row,Sequence,relative binding free energy
1,AGGAGCACGTGGAGTC,-0.1 kcal/mol
2,TTAGGCACGTGGGAGC,-0.1 kcal/mol
3,TGATACACGTGGGGTA,-0.12 kcal/mol
4,TTGGTCACGTGGCCGA,-0.03 kcal/mol
5,GTTATCACGTGTTCAG,0.25 kcal/mol
6,GTTTTCACGTGTGCGT,0.41 kcal/mol
7,TTATCCACGTGTTGTC,0.11 kcal/mol
8,AGGTTCACGTGAAATT,0.38 kcal/mol
9,AATTTCACGTGCGGTT,0.25 kcal/mol
10,AGATACACGTGGGAGG,0.04 kcal/mol
11,AAATGCACGTGGTATG,-0.07 kcal/mol
12,GGATTCACGTGTGAGG,0.42 kcal/mol
13,GATGTCACGTGTCGGA,0.27 kcal/mol
14,TGTGACACGTGGTTGG,0.01 kcal/mol
15,ATTCGCACGTGTGTGT,-0.07 kcal/mol
16,GTCGACACGTGGATGT,-0.03 kcal/mol
17,CATTTCACGTGAGGTA,0.4 kcal/mol
18,TTGGGCACGTGGTCTG,-0.32 kcal/mol
19,TTTGGCACGTGATGCA,-0.05 kcal/mol
20,CGTTGCACGTGCTGGT,-0.19 kcal/mol
21,TTAGTCACGTGTAGGG,0.14 kcal/mol
22,AGAGGCACGTGTAGTG,-0.06 kcal/mol
23,GGGCGCACGTGATGTA,0.03 kcal/mol

row,Sequence,relative binding free energy
1,GGGAGCACGTGCGGTC,-0.04 kcal/mol
2,GTCAACACGTGGGTGT,-0.09 kcal/mol
3,AGTCTCACGTGGCAGG,0.08 kcal/mol
4,GCTAGCACGTGTTTTG,-0.04 kcal/mol
5,AATAACACGTGTGGTA,0.1 kcal/mol
6,TGAGTCACGTGGCGCT,-0.01 kcal/mol
7,GGAAACACGTGATGGG,0.08 kcal/mol
8,GGGGGCACGTGACTGC,0.02 kcal/mol
9,TTTAACACGTGAATCG,0.24 kcal/mol
10,TATATCACGTGGATAG,0.14 kcal/mol
11,TGAGGCACGTGGGTTG,-0.2 kcal/mol
12,CTCATCACGTGGAGGG,0.05 kcal/mol
13,AGGCTCACGTGGGAAG,0.06 kcal/mol
14,AGGTGCACGTGCAATG,-0.11 kcal/mol
15,GTGGTCACGTGGGTAG,-0.01 kcal/mol
16,TGCCGCACGTGAGTGG,-0.02 kcal/mol
17,TTTTGCACGTGATCAG,-0.06 kcal/mol
18,GGTTACACGTGCGAGG,-0.01 kcal/mol
19,GAGTTCACGTGATTTT,0.48 kcal/mol
20,TTTGTCACGTGGAATC,0.28 kcal/mol
21,TGATTCACGTGAATTT,0.4 kcal/mol
22,ACATTCACGTGATTTT,0.39 kcal/mol
23,TTCGGCACGTGGCGGA,-0.18 kcal/mol

row,Sequence,relative binding free energy
1,TTAGTCACGTGGCCTG,-0.06 kcal/mol
2,TCTGTCACGTGTTGGT,0.12 kcal/mol
3,GGCTGCACGTGATGGT,0.27 kcal/mol
4,TCAAGCACGTGAGGGG,0.19 kcal/mol
5,TATTTCACGTGCGAGG,0.19 kcal/mol
6,GCTAGCACGTGGATGG,-0.08 kcal/mol
7,CGTATCACGTGAGTAG,0.24 kcal/mol
8,TGTTGCACGTGGCGGA,-0.09 kcal/mol
9,AGTTACACGTGAATGG,0.39 kcal/mol
10,ATGGGCACGTGAGATT,0.17 kcal/mol
11,GTGCGCACGTGGGCTT,-0.3 kcal/mol
12,TTCGACACGTGCGGTT,0.18 kcal/mol
13,TTGGACACGTGGAAGC,0.14 kcal/mol
14,GTCCGCACGTGGTGGG,-0.29 kcal/mol
15,TTTGCCACGTGGTGGA,-0.1 kcal/mol
16,GGTGGCACGTGCAAGG,-0.07 kcal/mol
17,ATCTTCACGTGATTAT,0.19 kcal/mol
18,GGTGCCACGTGAAGGA,0.08 kcal/mol
19,CTGGGCACGTGGCAGG,-0.27 kcal/mol
20,GTTAACACGTGTGAGA,0.24 kcal/mol
21,AAGATCACGTGTGAGT,0.22 kcal/mol
22,GGGTACACGTGAGAGA,0.22 kcal/mol
23,AGTTGCACGTGGTATT,-0.07 kcal/mol

row,Sequence,relative binding free energy
1,TTCTGCACGTGGTTTT,-0.07 kcal/mol
2,TTCTGCACGTGGGAAG,-0.08 kcal/mol
3,GTGCGCACGTGGGCGG,-0.37 kcal/mol
4,TTAAACACGTGAGTTT,0.27 kcal/mol
5,GTTAGCACGTGGATGC,-0.01 kcal/mol
6,AAGCACACGTGGCGGG,0.02 kcal/mol
7,GGCGTCACGTGGGTAC,0.07 kcal/mol
8,AATTCCACGTGGCGGG,0.06 kcal/mol
9,TTAGTCACGTGTACAT,0 kcal/mol
10,GGCGGCACGTGATGTT,0.2 kcal/mol
11,TGGGGCACGTGGTAGC,-0.16 kcal/mol
12,GTGGTCACGTGGGAGG,-0.01 kcal/mol
13,AGTTGCACGTGGGTAC,-0.25 kcal/mol
14,GAGTTCACGTGCTAGT,0.14 kcal/mol
15,GGTCGCACGTGGCGGC,-0.09 kcal/mol
16,CGCGTCACGTGAAGGG,0.24 kcal/mol
17,GGCTACACGTGGGTGA,-0.07 kcal/mol
18,GTAAACACGTGGCGGG,-0.08 kcal/mol
19,TTGGTCACGTGAAGAA,0.29 kcal/mol
20,TCTGACACGTGGGGTT,-0.1 kcal/mol
21,GGTAGCACGTGCGCGG,-0.12 kcal/mol
22,CGTTTCACGTGATGGA,0.25 kcal/mol
23,TGTAACACGTGTTTTA,-0.04 kcal/mol
